# In PubChem BioAssay AID624417 (National Center for Advancing Translational Sciences (NCATS), 2012):
# In all, about 410,000 compounds went through this assay and about 6,400 (1.6%) were called active. This list was built around the results that the source calls inconclusive (neither active nor inactive); the mix of calls is not that of the screen. Calls come from the whole dose curve; as a rule, active = well fitted inhibition curve with a large enough effect; inconclusive = small, poorly fitted or top-dose-only effect; inactive = no such curve, though single readings can be large or run the other way. No potency is given beside an inconclusive call; the fits are too rough.
# Molecular target: Glucagon-like peptide 1 receptor (Homo sapiens) (UniProt P43220)
# Assay: qHTS of GLP-1 Receptor Inverse Agonists (Inhibition Mode); note: nearly all actives have a fitted effect of over 55% in size
# Settings: HEK293 GLP-1R CRE-luciferase, luminescence, 24 h, GLP-1R form is constitutively active; series mostly up to 38.3 µM
# Procedure, shortened: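 qHTS in 1536-well format: reporter HEK293 cells expressing constitutive GLP-1R activity in DMEM + 10% Nu serum, 24 hr with compounds at 37 deg C, luminescence read after 12 min with detection reagent.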
# Potency is the fitted concentration of half-maximal effect; tags give direction and shape of the fitted curve.
# UniProt P43220, sequence (P43220 whole entry, looked up): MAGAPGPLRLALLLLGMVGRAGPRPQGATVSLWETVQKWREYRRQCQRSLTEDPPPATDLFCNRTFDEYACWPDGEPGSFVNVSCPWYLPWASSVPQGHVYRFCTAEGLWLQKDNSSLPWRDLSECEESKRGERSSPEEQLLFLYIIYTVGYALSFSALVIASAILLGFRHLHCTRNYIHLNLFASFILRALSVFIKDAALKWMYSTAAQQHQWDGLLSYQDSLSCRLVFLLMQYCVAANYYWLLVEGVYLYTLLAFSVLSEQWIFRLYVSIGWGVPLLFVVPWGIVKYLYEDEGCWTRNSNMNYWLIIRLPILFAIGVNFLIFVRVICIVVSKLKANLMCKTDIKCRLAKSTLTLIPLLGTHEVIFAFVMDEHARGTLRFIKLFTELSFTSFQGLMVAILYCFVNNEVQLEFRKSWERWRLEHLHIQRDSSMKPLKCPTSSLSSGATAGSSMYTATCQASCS
row,SMILES,Potency
1,CCOc1cc([C@@H]2C[C@H]3CN(c4ccccc4)C(=O)[C@]34CCCN24)ccc1OC,"inconclusive [inhibitor, partial curve, poor fit]"
2,Cc1oc2ncn(CC(C)C)c(=O)c2c1C(=O)NCc1cccc(Cl)c1,inactive
3,COc1ccc(C(=O)c2cc([N+](=O)[O-])ccc2N2CCN(C)CC2)cc1,"inconclusive [inhibitor, partial curve, poor fit]"
4,Fc1cccc(Cl)c1CN1CCN(c2nc3ccccc3s2)CC1,"inconclusive [inhibitor, single point]"
5,COc1ccc(S(=O)(=O)NCCCc2ccccc2)cc1,"inconclusive [inhibitor, single point]"
6,O=C(NC(=S)N1CCCCCC1)c1ccc(Cl)cc1Cl,"inconclusive [inhibitor, full curve, poor fit]"
7,CC(=O)Nc1ccc(OCC(O)CN2CCN(c3ccc(Cl)cc3)CC2)cc1 (stereo not drawn),"inconclusive [inhibitor, single point]"
8,CN(CCOc1ccccc1)C(=O)c1cc(-c2ccco2)nc2ccccc12,"inconclusive [inhibitor, single point]"
9,CC(C)c1ccc(C2c3[nH]c4ccccc4c3C[C@H]3C(=O)N(c4ccccc4C(=O)N4CCC(C(=O)O)CC4)C(=O)N23)cc1 (stereo partly drawn),"inconclusive [inhibitor, partial curve]"
10,CS(=O)(=O)c1ncc(Cl)c(C(=O)N2CCN(c3cccc(Cl)c3)CC2)n1,"inconclusive [inhibitor, single point]"
11,CN(Cc1ccc(F)cc1Cl)S(=O)(=O)c1cccs1,"inconclusive [inhibitor, single point]"
12,Cc1ccc(-c2oc3ncnc(N)c3c2-c2ccc(C)cc2)cc1,inactive
13,Nc1ccc(C(=O)Nc2nc3ccccc3s2)cc1,"inconclusive [inhibitor, partial curve, poor fit]"
14,CCOc1ccc(CN(C)CC(=O)Nc2ccc3c(c2)CCC3)cc1OC,"inconclusive [inhibitor, single point]"
15,CCCCCC1C(=O)N2C=C(c3ccccc3)c3ccccc3N2C1=O (stereo not drawn),"inconclusive [inhibitor, single point]"
16,CCc1ccc(OCC(=O)NC(NC(=S)Nc2ccc(C)cc2C)C(Cl)(Cl)Cl)cc1 (stereo not drawn),active: 5.01 µM
17,Cc1ccccc1OCC(=O)N(Cc1cccc(F)c1)C1CCS(=O)(=O)C1 (stereo not drawn),"inconclusive [inhibitor, single point]"
18,CC(C)COc1ccc(C(=O)N/C(=C\c2cccc([N+](=O)[O-])c2)C(=O)OC(C)C)cc1,"inconclusive [inhibitor, full curve]"
19,O=C(Cc1ccc(-c2ccccc2)cc1)NCCS(=O)(=O)N1CCN(c2cccc(Cl)c2)CC1,inactive
20,COc1ccc(CNC(=O)Nc2cccc(Cl)c2)cc1,inactive

row,SMILES,Potency
1,COc1cccc(-c2cc(=O)c3cc(NC(=O)c4ccc(N(C)C)cc4)ccc3[nH]2)c1,"inconclusive [inhibitor, full curve, poor fit]"
2,S=c1[nH]nc(Cc2sc(-c3ccccc3)nc2-c2ccccc2)o1,"inconclusive [inhibitor, single point]"
3,CCCc1oc2ccc(NS(=O)(=O)c3ccc(OCC)cc3)cc2c1C(=O)OCC,"inconclusive [inhibitor, partial curve, poor fit]"
4,O=C(Nc1cccnc1)Nc1ccc(F)c(Cl)c1,"inconclusive [inhibitor, full curve]"
5,CCOC(=O)c1c(-c2ccccc2)csc1NC(=S)N(CC)CC,"inconclusive [inhibitor, partial curve, poor fit]"
6,CC(=O)c1cccc(NC(=O)C(C)N(C)CC(=O)Nc2ccc(Cl)cc2)c1 (stereo not drawn),"inconclusive [inhibitor, partial curve, poor fit]"
7,NC(=O)Cn1c(=O)n(CCC(=O)Nc2ccc(F)cc2)c(=O)c2sccc21,"inconclusive [inhibitor, full curve, poor fit]"
8,Cc1cc(C)c(C)c(S(=O)(=O)NC(C(=O)NCCc2ccco2)C(C)C)c1C (stereo not drawn),"inconclusive [inhibitor, single point]"
9,Cc1nn(CC(=O)N2c3ccccc3NC(=O)C2(C)C)c(C)c1[N+](=O)[O-],inactive
10,CCCCN(CC)CCCNC(=O)Cn1nc(CC)n2c(cc3sccc32)c1=O,inactive
11,CN(c1ccccc1)S(=O)(=O)c1cccc(NC(=O)CCNC(=O)c2ccc([N+](=O)[O-])cc2)c1,"inconclusive [inhibitor, single point]"
12,Cc1ccc(-n2nc3c(N4CCC(C(=O)NCCc5ccco5)CC4)nnc(C)c3c2C)cc1,"inconclusive [inhibitor, full curve, poor fit]"
13,CCOC(=O)C1(Cc2cccc(Cl)c2)CCCN(C(=O)c2cc(CC)on2)C1 (stereo not drawn),"inconclusive [inhibitor, single point]"
14,Cc1ccc([C@@H]2CC=C(C(=O)O)[C@H](c3cccc(Cl)c3)N2S(=O)(=O)c2ccccc2C)cc1,"inconclusive [inhibitor, partial curve, poor fit]"
15,CCOc1ccccc1C(=O)Nc1nn[nH]n1,"inconclusive [inhibitor, full curve, poor fit]"
16,COc1ccc([C@@H]2C[C@@H](c3ccccc3)Oc3cc(OC)cc(OC)c32)cc1,"inconclusive [inhibitor, partial curve, poor fit]"
17,Cc1cc(N2CCOCC2)nc(SCc2c(Cl)cccc2Cl)n1,"inconclusive [inhibitor, single point]"
18,O=C(Cc1ccc([N+](=O)[O-])cc1)Nc1ccc2c(c1)CCC2,inactive
19,Cc1ccc(C2(C)NC(=O)N(CC(=O)Nc3ccc4c(c3)CCC4)C2=O)cc1 (stereo not drawn),"inconclusive [inhibitor, partial curve, poor fit]"
20,O=C(NC(=S)Nc1cccc(Cl)c1N1CCOCC1)c1cccs1,"inconclusive [inhibitor, partial curve, poor fit]"

row,SMILES,Potency
1,CCn1cc(C2=NC(c3ccccc3)CO2)c2ccccc21 (stereo not drawn),"inconclusive [inhibitor, partial curve, poor fit]"
2,Cc1ccc(C)c(N2C(=O)N(Cc3ccccc3C)c3ccccc3S2(=O)=O)c1,"inconclusive [inhibitor, partial curve, poor fit]"
3,CC1=CC(C)(C)N(C(=O)c2ccc(F)cc2)c2cc3c(cc21)OCO3,"inconclusive [inhibitor, partial curve, poor fit]"
4,Cc1ccc(S(=O)(=O)N2CCCCC2)cc1NC(=O)COC(=O)c1cccc(O)c1,"inconclusive [inhibitor, single point]"
5,O=C(Cc1ccccc1F)Nc1ccc(S(=O)(=O)N2CCCCC2)cc1,"inconclusive [inhibitor, partial curve, poor fit]"
6,Cc1ccc(C)c(CN2CCC(CNC(=O)Nc3cccc(Cl)c3C)CC2)c1,"inconclusive [inhibitor, full curve, poor fit]"
7,CC(C)Sc1nc(SCC(=O)NCc2ccco2)c2c3c(sc2n1)COC(C)(C)C3,"inconclusive [inhibitor, full curve, poor fit]"
8,N#CC1=C(SCc2ccc(C#N)cc2)N=C(N)C(c2nc(-c3ccccc3)cs2)C12CCCCC2 (stereo not drawn),"inconclusive [inhibitor, full curve, poor fit]"
9,CCOP(=O)(OCC)c1nc(/C=C/c2ccccc2)oc1NCc1ccccc1,"inconclusive [inhibitor, partial curve, poor fit]"
10,COc1ccc(C#Cc2c(-c3ccccc3)n(C)c3ccccc23)cc1,"inconclusive [inhibitor, partial curve, poor fit]"
11,CC(C)Oc1ccc(CNC(=O)CN2C(=O)CCn3nc(-c4cn(C)c5ccccc45)cc32)cc1,"inconclusive [inhibitor, partial curve, poor fit]"
12,CC#CCN1c2ccccc2[C@]23C[C@@H](C(=O)OC)N(C(=O)c4cc(C)oc4C)C2=NC(C(=O)OC)=C(C(=O)OC)[C@H]13,"inconclusive [inhibitor, partial curve, poor fit]"
13,O=C(Nc1ccc(N2CCN(c3ncccc3C(F)(F)F)CC2)nc1)c1cccs1,"inconclusive [inhibitor, partial curve, poor fit]"
14,CCc1ccc2[nH]c(=O)c(CN(Cc3ccco3)C(=S)NCC3CCCO3)cc2c1 (stereo not drawn),"inconclusive [inhibitor, single point]"
15,COc1ccc(-n2c(SCc3nc(-c4ccc(C)cc4)no3)nnc2-c2ccccc2)cc1,inactive
16,CN(C)c1cccc(C(=O)NCc2ccccc2Cl)c1,"inconclusive [inhibitor, partial curve, poor fit]"
17,CCCCNC(=O)C1(C)CCN1Cc1cc(C)ccc1C (stereo not drawn),"inconclusive [inhibitor, single point]"
18,CC(C)=CCC/C(C)=C/CNC(=O)C[C@H]1C[C@H](C(=O)N2CCOCC2)[C@@]2(CCC3CCCC3)c3[nH]c4cc(-c5ccco5)ccc4c3CCN2C1=O,"inconclusive [inhibitor, partial curve, poor fit]"
